We go through 89 molecules from paper PMC4336329 (PLoS ONE, 2015).

The campaign covered roughly 310,000 compounds. About 14,000 (4.5%) showed an effect of 50% or more. Effects have a minus sign here. Some of the results follow.
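Further: peak tail current of the secondary pulse compared with the same well before compound.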

Sequence of human ether-à-go-go-related gene (hERG) potassium channel (Q12809 whole entry, looked up): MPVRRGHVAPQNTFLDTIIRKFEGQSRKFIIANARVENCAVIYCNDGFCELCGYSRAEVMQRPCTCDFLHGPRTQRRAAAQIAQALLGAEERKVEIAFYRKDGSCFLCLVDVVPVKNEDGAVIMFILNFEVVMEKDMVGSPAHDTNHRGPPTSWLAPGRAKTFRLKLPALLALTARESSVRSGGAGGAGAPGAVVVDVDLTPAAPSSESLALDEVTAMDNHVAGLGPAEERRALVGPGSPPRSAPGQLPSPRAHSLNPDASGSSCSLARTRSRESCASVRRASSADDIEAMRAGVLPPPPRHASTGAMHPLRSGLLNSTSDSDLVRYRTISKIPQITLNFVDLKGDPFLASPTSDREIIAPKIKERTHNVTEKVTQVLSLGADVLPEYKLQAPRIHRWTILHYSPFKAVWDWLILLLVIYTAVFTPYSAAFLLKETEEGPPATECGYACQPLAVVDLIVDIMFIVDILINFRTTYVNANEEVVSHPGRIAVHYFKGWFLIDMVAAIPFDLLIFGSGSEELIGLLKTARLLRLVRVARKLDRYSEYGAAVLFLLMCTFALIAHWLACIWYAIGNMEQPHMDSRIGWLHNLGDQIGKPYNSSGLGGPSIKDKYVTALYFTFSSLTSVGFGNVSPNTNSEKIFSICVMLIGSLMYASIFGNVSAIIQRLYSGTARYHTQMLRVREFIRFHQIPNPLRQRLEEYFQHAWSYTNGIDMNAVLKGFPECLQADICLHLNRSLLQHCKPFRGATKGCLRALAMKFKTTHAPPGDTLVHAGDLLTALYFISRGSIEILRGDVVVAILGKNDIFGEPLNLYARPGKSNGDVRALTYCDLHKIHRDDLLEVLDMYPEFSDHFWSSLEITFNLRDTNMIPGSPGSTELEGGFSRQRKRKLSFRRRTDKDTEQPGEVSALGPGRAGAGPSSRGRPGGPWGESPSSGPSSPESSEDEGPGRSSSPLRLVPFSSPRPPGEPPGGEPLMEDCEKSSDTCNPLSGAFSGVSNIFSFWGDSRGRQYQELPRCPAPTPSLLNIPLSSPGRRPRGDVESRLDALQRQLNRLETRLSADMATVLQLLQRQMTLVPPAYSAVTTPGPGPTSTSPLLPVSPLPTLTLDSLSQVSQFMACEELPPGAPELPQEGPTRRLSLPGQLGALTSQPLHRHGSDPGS

The assay has as its target human ether-à-go-go-related gene (hERG) potassium channel (human, UniProt Q12809). The assay can be described thus: primary screen, population patch clamp on CHO cells stably expressing hERG.
On to `CC(C)c1ccc(/C=N/N2CCN(c3ccccn3)CC2)cc1`, for which the “hERG current change (%, negative = inhibition) at 10uM” value was found to be 8.39%. With `Cc1cccc(N2CC(C(=O)NCCC3=CCCCC3)CC2=O)c1C` (centres unmarked) the figure was -4.77%; with `CC(Nc1nc(-c2ccc(F)cc2)cs1)c1nc2cc(Cl)c(Cl)cc2n1CCOCCO` (centres unmarked), -27.2%. Next, `CC1CCCN(C(=O)c2ccc(N3CC4CC(C3)c3cccc(=O)n3C4)c([N+](=O)[O-])c2)C1` (centres unmarked): -29.7%; `Cc1ccc(-c2noc(CSc3nnc(Cc4ccccc4)n3-c3cccc(C)c3)n2)cc1`: -5.49%. Next, `CCN1C(=O)N(c2cccc3ccccc23)C(C)=CC1(C)C`: -1.91%; `Cc1[nH]n(-c2ccccc2)c(=O)c1/C=N/NC(=O)c1ccccc1F`: 2.32%.

With `CC(=O)N1c2ccc(S(=O)(=O)N3CCCC3)cc2CC1C(=O)Nc1cc(C)cc(C)c1` (centres unmarked), the “hERG current change (%, negative = inhibition) at 10uM” value is -4.81%. Next, `Nc1c(C(=O)Nc2nc3ccccc3s2)sc2nc(-c3cccs3)ccc12`: 1.44%; `COc1cc(/C=N/NC(=O)c2ccccc2)ccc1OS(=O)(=O)c1ccccc1`: 1.85%; `COC(=O)Nc1ccc2c(c1)N(C(=O)CCN1CCOCC1)c1ccccc1S2.Cl`: 2.68%.

As for `CCCNC(=O)CCc1cc(C(C)(C)C)c(O)c(C(C)(C)C)c1`, the “hERG current change (%, negative = inhibition) at 10uM” value was -5.21%.

Consider `Cc1ccc(NCc2nnc(SCCN3CCCCC3)n2CC2CCCO2)c(C)c1` (centres unmarked), for which the “hERG current change (%, negative = inhibition) at 10uM” value is given as -58.5%.

In the case of `Cc1ccc(NC(=O)CN(c2ccccc2)S(=O)(=O)N(C)C)cc1C`, the “hERG current change (%, negative = inhibition) at 10uM” value is listed as 3.15%. `CCCCC(=O)N(c1ccc(C)c(C)c1)C1C=CS(=O)(=O)C1` (centres unmarked): the “hERG current change (%, negative = inhibition) at 10uM” value worked out at 13.3%. Next, `CCn1c(SCC(=O)N2CCN(c3ccccc3)CC2)nc2c(c1=O)SC(C)C2` (centres unmarked): -48.2%. Turning to `CC(C)COP(=O)(OCC(C)C)C(Nc1ccccc1)c1ccccc1` (centres unmarked), the “hERG current change (%, negative = inhibition) at 10uM” value was -18.7%. As for `Cc1c(C(=O)N2CCN(C(=O)c3ccccc3)CC2)oc2ccc(F)cc12`, the “hERG current change (%, negative = inhibition) at 10uM” value is -44.8%. Turning to `COC(=O)C(=C/C(C)=C/c1cccnc1)C(=O)OC`, the “hERG current change (%, negative = inhibition) at 10uM” value is -2.68%. Regarding `CCC(=O)NNc1ccc(Br)cc1`, the “hERG current change (%, negative = inhibition) at 10uM” value was determined as 8.48%. With `Cc1nnc(SCCn2c(N3CCC(C)CC3)nc3c2c(=O)[nH]c(=O)n3C)s1` the figure was 6.44%; with `CCNc1nc(NCC)nc(N(C)n2cnnc2)n1`, -7.9%.

Regarding `CCOC(=O)C1CCCN(S(=O)(=O)c2ccc(C)cc2)C1` (centres unmarked), the “hERG current change (%, negative = inhibition) at 10uM” value is given as -2.86%.

Consider `CCC1[NH+]=C(SC)NC(C)=C1C(=O)c1ccccc1.[I-]` (centres unmarked), for which the “hERG current change (%, negative = inhibition) at 10uM” value came out at 6.67%. Next, `COCCn1c(SCC(=O)Nc2cccc(C(=O)OC)c2)nc2ccccc2c1=O`: -42.5%; `COc1ccc(N2CCN(c3nc(NC(C)(C)C)nc(N4CCCCC4)n3)CC2)cc1`: 19.6%.

On to `CCN1C(=O)c2ccccc2S(=O)(=O)c2ccc(C(=O)NCCCN(CC(C)C)CC(C)C)cc21`, for which the “hERG current change (%, negative = inhibition) at 10uM” value was -12.7%. `Nc1nc2c(F)cccc2s1`: the “hERG current change (%, negative = inhibition) at 10uM” value is 31.2%. Next, `CCOC(=O)Nc1c(C)n(C)n(-c2ccccc2)c1=O`: 8.5%; `N#C/C(=C\Nc1ccc2c(c1)OCCO2)c1nc2ccccc2[nH]1`: -28.8%; `COc1ccc(NC(=O)COc2coc(CN3CCc4ccccc4C3)cc2=O)cc1`: 0.124%. Take `O=S(=O)(O)c1nc2ccccc2n1Cc1cccc2ccccc12`: the “hERG current change (%, negative = inhibition) at 10uM” value was 10.8%.

Regarding `CCc1nnc(NC(=O)C(=O)NCCOC(=O)c2ccccc2Cl)s1`, the “hERG current change (%, negative = inhibition) at 10uM” value came out at 5.68%.

For `O=S(=O)(c1ccc(F)cc1)N1CCN=C1SCc1cccc(F)c1`, the “hERG current change (%, negative = inhibition) at 10uM” value worked out at 4.76%. With `CCCc1cc(=O)[nH]c(SCC(=O)Nc2cc(C)on2)n1` the figure was -70.9%. Next, `O=C(NCc1ccncc1)C(=O)Nc1nc(C23CC4CC(CC(C4)C2)C3)cs1`: -5.7%; `Cc1nn(C)c(NC(=O)c2ccccc2Cl)c1Cl`: 23.1%. With `COc1cccc(CNC(=O)C2CCC(CNS(=O)(=O)c3cccc4nsnc34)CC2)c1` (centres unmarked) the figure was -29.4%; with `CCc1cccc(N(C(=O)c2csnn2)C(C(=O)NC2CCCCC2)c2ccncc2)c1` (centres unmarked), 7.18%; with `CC(C)(C)CC(=O)Nc1ccc(S(=O)(=O)N2CCCC2)cc1`, 4.31%. For `CC(C)OCC(O)CN1CCN(CCN2C(=O)c3cccc4cccc(c34)C2=O)CC1.Cl` (centres unmarked), the “hERG current change (%, negative = inhibition) at 10uM” value is recorded as -51.7%.

As for `CNC(=O)C1CC(=O)N(c2ccc(OCC(=O)NCc3ccccc3)cc2)C1` (centres unmarked), the “hERG current change (%, negative = inhibition) at 10uM” value is 11.7%.

With `CC1Cc2ccccc2N1C(=O)CN1CCN(S(=O)(=O)c2cccs2)CC1` (centres unmarked), the “hERG current change (%, negative = inhibition) at 10uM” value is recorded as -21.3%. Regarding `COc1ccc(N2CC(NS(=O)(=O)c3cccs3)CC2=O)cc1` (centres unmarked), the “hERG current change (%, negative = inhibition) at 10uM” value came out at 12%. With `NC(=O)c1ccc(NC(=O)CNC(=O)c2sc3ccccc3c2Cl)cc1` the figure was 0.282%; with `COC(=O)c1ccc(OC(=O)C2CC(=O)N(c3ccc(C)cc3C)C2)cc1` (centres unmarked), 11.4%; with `Cc1c(Cc2ccccc2)c(=O)oc2cc(OCC(N)=O)ccc12`, 5.27%. Next, `CC1(C)Cc2c(cnn2-c2ccc(F)cc2)C(NC(=O)CCCN2CCCCC2=O)C1` (centres unmarked): 2.89%; `Cc1cc(Cl)c(S(=O)(=O)NC(C(=O)O)C(C)C)cc1OCC(=O)NC1CCCCC1` (centres unmarked): 9.54%; `Cc1cccc2nc3c(nc12)CCCC3`: 2.11%. Next, `COc1ccc(CN2CCOCC2)cc1`: 10.7%; `C=CCN1C(=O)N(CC=C)c2cccc3cccc1c23`: 13.3%. As to `OCCCc1nc2n(n1)C(c1ccccc1)C=C(c1ccc(F)cc1)N2` (centres unmarked), the “hERG current change (%, negative = inhibition) at 10uM” value is -12.8%. As for `O=C(CCCCO)c1ccc(O)c(Cl)c1`, the “hERG current change (%, negative = inhibition) at 10uM” value is reported as 2.35%. On to `CC(=O)Oc1ccc(/C(C)=N/N2CCN(Cc3ccc(C)cc3)CC2)cc1`, for which the “hERG current change (%, negative = inhibition) at 10uM” value is given as -73.2%. For the molecule `CCn1c(SCc2nc3ccccc3[nH]2)nnc1-c1cccs1`, the “hERG current change (%, negative = inhibition) at 10uM” value is -33.6%. With `O=C(O)CSc1nnc(Nc2ccccc2)n1-c1ccccc1` the figure was 18.6%. With `O=C(O)c1ccccc1/C=N/n1c(C2CCCCC2)n[nH]c1=S` the figure was 16.8%. With `CCN1C(=O)[C@@H]2[C@@H](c3ccc(SC4CCCCC4)c(OC)c3)N3CCC[C@@]3(C(=O)OC)[C@@H]2C1=O.O=C(O)C(F)(F)F` the figure was -56%; with `CCCc1nc(N)c(C#N)c(-c2ccco2)c1CC`, 14.3%. Take `O=C(N/N=C/c1c[nH]c2ccc(Br)cc12)c1ccn(Cc2ccc(Cl)cc2Cl)n1`: the “hERG current change (%, negative = inhibition) at 10uM” value turned out to be 6.95%. For `COCCn1cnc2c1c(=O)n(CC(=O)NN)c(=O)n2Cc1ccccc1`, the “hERG current change (%, negative = inhibition) at 10uM” value is listed as 8.95%. Turning to `O=C(Nc1ccccc1Cl)NC1(C(=O)N2CCCC2)CCCCC1`, the “hERG current change (%, negative = inhibition) at 10uM” value is given as -2.83%.

On to `O=C(COC(=O)c1ccc2c(=O)n3c(nc2c1)CCC3)Nc1ccc(OC(F)F)cc1`, for which the “hERG current change (%, negative = inhibition) at 10uM” value is listed as -9.04%. Next, `COc1cc(C)ccc1OCCCOc1ccccc1Cl`: 5.53%; `Cc1n[nH]c(C)c1CN(C)C(=O)c1cc(COc2ccc(F)c(F)c2)on1`: -20.8%. Next, `COc1ccc(C(=O)C2CCCN(C(=O)c3cc(C)nc(C)n3)C2)cc1OC` (centres unmarked): 21.9%. Consider `CC(C)Cc1nc(N2CCNCC2)c(C#N)c2c1CCC2`, for which the “hERG current change (%, negative = inhibition) at 10uM” value amounted to 3.25%. On to `CCCCC(=O)NNC(=O)N1c2ccccc2Sc2ccccc21`, for which the “hERG current change (%, negative = inhibition) at 10uM” value is recorded as -1.83%.

As to `Cc1cc(NC(=O)CSc2nnnn2-c2ccc(C)c(Cl)c2)no1`, the “hERG current change (%, negative = inhibition) at 10uM” value is reported as 23.3%. With `CCOc1ccc(CCNC(=O)c2ccc(CS(=O)Cc3cccc(Cl)c3)o2)cc1` (centres unmarked) the figure was -76%; with `COc1ccc2c(c1OC)CN1CCc3cc4c(cc3[C@H]1C2)OCO4`, -1.81%; with `CCOC(=O)C1=C(COC(=O)[C@H](C)NS(=O)(=O)c2ccc(NC(C)=O)cc2)NC(=O)NC1C` (some centres unmarked), 21.2%. With `CC(C)Oc1ccc(CCC(=O)N/N=C/c2ccc3c(c2)OCO3)cc1` the figure was 21%; with `COc1ccccc1CC(=O)NC1CCN(Cc2ccccc2)CC1`, 1.52%; with `COc1ccc(NC(=O)NC(C)c2ccc3c(c2)OCO3)cc1OC` (centres unmarked), 18%. With `COc1cccc(C(=O)Nc2ccc(NC(=O)C(C)C)nc2)c1` the figure was -8.07%; with `Cc1ccc(CNS(=O)(=O)c2c(C)[nH]c(C)c2C(=O)N2CCCC2)cc1`, 14.4%; with `CN1CCN(c2ccc([N+](=O)[O-])cc2NC(=O)c2cccs2)CC1`, -55.2%. `Cc1cc(N/C=C/C(=O)c2ccccc2)ccc1Br`: the “hERG current change (%, negative = inhibition) at 10uM” value is recorded as 7.63%. Next, `CN(C)/C=N/c1sc2c(c1C(N)=O)CCCC2`: 18%; `COC(=O)c1[nH]c2cc(OC)ccc2c1NC(=O)CN1CCC(C(N)=O)(N2CCCCC2)CC1`: -33.4%. `Cc1cccc(NC(=O)C2(c3cccs3)CCOCC2)n1`: the “hERG current change (%, negative = inhibition) at 10uM” value was found to be 22.8%. With `CCOc1ccc(C(=O)Nc2nnc(SCC(=O)NCC3CCCO3)s2)cc1` (centres unmarked) the figure was 12.6%; with `COc1ccc(-n2c(SCC(=O)Nc3ccccc3)nc(O)cc2=O)cc1`, 25.6%; with `Cc1ccc(/C=N/NC(=O)CCCOc2ccc(Cl)cc2Cl)cc1`, -1.05%. For the molecule `C[C@H](NC(=O)c1[nH]cnc1C(=O)Nc1ccc(Cl)cc1)c1ccccc1`, the “hERG current change (%, negative = inhibition) at 10uM” value was 4.04%. Take `C=CCN1CN(CCc2ccccc2)CNC1=S`: the “hERG current change (%, negative = inhibition) at 10uM” value stood at 19.5%. With `CCOc1ccc2c(c1)n(CO)c(=S)n2CO`, the “hERG current change (%, negative = inhibition) at 10uM” value was 7.31%.
